# Measurements published in US20220017583A1.
# Certain results were filed several times, with different values. The other results are left out here. An entry can have further records. The values listed for one entry read as repeated measurements (runs, samples, wells or individuals).
# Target: amyloid β (1-42) (UniProt P05067)
# Test: trapping on beads, eluate by MALDI-TOF MS; amount of antigen needed for detection
# Chain of UniProt P05067 (P05067 672-713 limits assumed): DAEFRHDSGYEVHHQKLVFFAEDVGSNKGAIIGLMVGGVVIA
substance,measurement,value
6E10 IgG-protein G beads (antibody),Detection Limit (S/N ≥ 3),100 pg and 22.2 fmol [lines of one column]
